Laboratory results reported in patent US20100196361A1, “Method of inhibition of vascular development using an antibody” (DYAX CORP., priority 2003, published 2010).

Tests used:
[1] = molecular target: T1, human Tie1-Fc fusion protein (Homo sapiens, UniProt P35590); assay: BIAcore 3000 affinity analysis of Fab and IgG; format: binding
T1 construct: selected against the Tie1 extracellular domain fused to human Fc or to a histidine purification tag
T1 sequence (P35590 22-759 limits assumed): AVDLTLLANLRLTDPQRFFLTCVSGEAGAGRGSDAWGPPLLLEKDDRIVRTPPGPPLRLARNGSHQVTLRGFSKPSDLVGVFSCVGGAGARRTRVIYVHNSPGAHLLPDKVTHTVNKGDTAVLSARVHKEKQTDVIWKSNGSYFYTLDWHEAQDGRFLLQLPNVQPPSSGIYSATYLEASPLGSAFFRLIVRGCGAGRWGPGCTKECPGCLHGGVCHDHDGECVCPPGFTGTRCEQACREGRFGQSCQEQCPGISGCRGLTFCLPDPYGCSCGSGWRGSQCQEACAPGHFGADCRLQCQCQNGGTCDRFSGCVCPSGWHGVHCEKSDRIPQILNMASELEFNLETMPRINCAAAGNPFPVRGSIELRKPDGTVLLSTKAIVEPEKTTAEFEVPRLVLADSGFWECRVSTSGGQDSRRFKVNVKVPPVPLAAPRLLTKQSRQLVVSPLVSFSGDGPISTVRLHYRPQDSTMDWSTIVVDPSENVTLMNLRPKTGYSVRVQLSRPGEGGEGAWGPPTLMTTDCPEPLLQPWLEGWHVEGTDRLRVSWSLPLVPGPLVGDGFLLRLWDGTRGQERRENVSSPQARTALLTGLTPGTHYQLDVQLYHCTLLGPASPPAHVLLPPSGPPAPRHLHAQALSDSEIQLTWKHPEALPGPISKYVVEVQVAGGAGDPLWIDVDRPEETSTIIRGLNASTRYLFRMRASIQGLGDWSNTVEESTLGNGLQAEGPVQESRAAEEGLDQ
Experimental: Affinity analysis of the Fab and IgGs was performed using surface plasmon resonance using a BIAcore 3000 instrument. For this analysis both dimeric (Tie1-Fc fusion protein) and monomeric (Tie1-HIS) versions of the extracellular domain of the Tie1 were used. The sensor chips used in these experiments were CM5 (dextran-coated) which allow immobilization of proteins to the chip via standard amine coupling chemistries. The concentration of flowed antibody was determined using a surface plasmon resonance based method. Using a high-density protein A sensor chip, under mass transport limited conditions, the response signal is dependent only on the concentration of the antibody in the sample under test. This approach allows a precise determination of the antibody concentration, a parameter important for accurate determination of the KD.
470 RUs of Tie1 HIS protein were coated on a CM5 sensor chip and 5, 20, 100, and 500 nM of the Fab flowed over the chip at four different flow rates ([…]), rates in which the system is not mass transport limited. Kinetic data was typically determined using a range of analyte concentrations and three different chip coating densities. The data from the lowest coating density that gave a good signal was typically chosen, this was often in a range from 50-100 RUs. Using such low coating densities allowed the sensor curves to be fit using BIAEVALUATION™ 3.0 software to a 1:1 model, often even when using a bivalent analyte (IgG or Tie1-Fc fusion protein). For bivalent analytes, when fit to a 1:1 model was not possible, the curves were fit using a 2:1 model.
The anti-Tie1 antibodies described here bind to both human and mouse Tie1 molecules. The binding of the anti-Tie1 Fab to mouse Tie1-Fc fusion protein was compared with the binding of the anti-Tie1 Fab to human Tie1-Fc fusion protein. In both of these experiments the Tie1-Fc fusion protein was immobilized on the sensor chip and the anti Tie-1 Fab served as the analyte. […]

[2] = system: SW-480 (colorectal cancer) cells; assay: SW-480 colorectal cancer xenograft in nu/nu mice; format: in vivo, mouse
Experimental: Mice (nu/nu) were implanted subcutaneously with 5×10^6 SW-480 (colorectal cancer) cells. After 12 days, when tumors reached approximately 100-200 mg, the mice were separated into 5 groups and treated with the following agents (or left untreated):
3—Cisplatin (4 mg/kg/, IV, q2d×5 times)
4—A2-SV (negative control antibody@10 mg/kg, IP, q2d×14 times)
5—DX-2220 (anti-Tie-1 antibody@10 mg/kg, IP, q2d×14 times)
Throughout the study, the length (L) and width (W) of any tumors that developed were measured in millimeters using calibrated vernier calipers, where L is the longer of the two dimensions. When applicable, tumor weight (M) in milligrams was calculated by using the formula associated with a prolate ellipsoid: M=(L×W^2)/2. […] A2-SV is an isotype matched (IgG1) negative control antibody that binds strepavidin.

[3] = system: Colo205 (human colorectal cancer); assay: Colo205 xenograft in mice; conditions: mouse, in vivo
Experimental: In addition to the in vivo studies presented above, four additional mouse xenografts studies were performed. These studies were conducted either according to the protocols used in the SW-480 or LNM35 study.

[4] = system: human myeloid and erythroid progenitors and megakaryocyte progenitors; assay: In vitro colony assays of hematopoietic progenitors; format: cell-based; conditions: methylcellulose- and collagen-based assays; concentrations up to 100 μg/ml
Experimental: The effect of anti-Tie1 antibodies (DX-2220 and DX-2240) on human myeloid and erythroid progenitors was evaluated using methylcellulose-based in vitro colony assays and megakaryocyte progenitors using collagen-based in vitro assays.

[5] = system: CD45+ CD34+ blood progenitor cells; assay: FACS analysis on blood progenitor cells; format: binding; conditions: G-CSF mobilized peripheral blood cells and bone marrow cells; biotinylated antibody
Experimental: To evaluate the binding characteristics to blood progenitor cells (stem cells), FACS analysis with the anti-Tie1 antibody (or the appropriate negative control antibody) on G-CSF mobilized peripheral blood cells and with bone marrow cells was performed. Briefly, cells were blocked with 10% heat-inactivated human AB serum/2% mouse serum. Binding was initiated with biotinylated DX-2220 or biotinylated A2 negative control antibody. After washing the cells, primary antibodies were detected using FITC-labeled streptavidin. Following an additional 30 minute incubation period, remaining erythrocytes were lysed, and the resulting cell pellet after centrifugation was resuspended in PBS prior to FACS analysis. Data acquisition was performed on a FACSCanto™ (Becton-Dickinson) using FacsDiva™ software. Active gating on SSC/CD45 was used. Progenitor cells were gated on CD45^+ CD34^+ cells and were acquired automatically with at least 100,000 CD45^+ CD34^+ counted.

Koff ([1]; Human Tie1-Fc): 3.67e-05 s⁻¹
Kon ([1]; Human Tie1-Fc): 7090 M⁻¹ s⁻¹
increase in affinity (avidity effect) of bivalent antibody over Fab ([1]; Tie1-Fc immobilized): greater than 10 fold
B1: DX-2220: full length, IgG1, germlined human anti-Tie1 antibody E3b; LC SEQ ID NO:700, HC SEQ ID NO:701 (antibody)
heavy: EVQLLESGGGLVQPGGSLRLSCAASGFTFSMYGMVWVRQAPGKGLEWVSVISPSGGNTGYADSVKGRFTISRDNSKNTLYLQMNSLRAEDTAVYYCARAPRGYSYGYYYWGQGTLVTVSS[left out - human IgG1 constant region]
light: DIQMTQSPSSLSASVGDRVTITCRASQGIGHYLAWYQQKPGKVPKLLIYTASTLQSGVPSRFSGSGSGTDFTLTISSLQPEDVATYYCQQFNSYPHTFGQGTRLEIKRTVAAPSVFIFPPSDEQLKSGTASVVCLLNNFYPREAKVQWKVDNALQSGNSQESVTEQDSKDSTYSLSSTLTLSKADYEKHKVYACEVTHQGLSSPVTKSFNRGEC
modifications: Antibody
slowing of tumor progression compared to vehicle (PBS)-treated control animals ([2]; 10 mg/kg IP q2d×14): 44%
efficacy relative to chemotherapeutic control ([2]; 10 mg/kg IP q2d×14 versus cisplatin 4 mg/kg IV q2d×5): as efficacious as the chemotherapeutic control (cisplatin)
effect on tumor progression [3]: no effect
inhibition of colony formation [4]: Neither DX-2220 nor DX-2240 inhibited colony formation
staining of CD45+ CD34+ blood progenitor cells [5]: neither the negative control IgG A02, nor the E3 anti-Tie1 antibody DX-2220, positively stained CD45^+ CD34^+ blood progenitor cells
